Measurements reported in patent US20260115255A1 (CYTUNE PHARMA, published 2026).
Positions count from the first letter of the chain named. Like-named read-outs stand apart in the source and are kept apart here.

T1: IL-2/IL-15Rβγ on kit225 cells (UniProt P14784 27-551; P31785 23-369, limits assumed)
T1 sequence (looked up) 1: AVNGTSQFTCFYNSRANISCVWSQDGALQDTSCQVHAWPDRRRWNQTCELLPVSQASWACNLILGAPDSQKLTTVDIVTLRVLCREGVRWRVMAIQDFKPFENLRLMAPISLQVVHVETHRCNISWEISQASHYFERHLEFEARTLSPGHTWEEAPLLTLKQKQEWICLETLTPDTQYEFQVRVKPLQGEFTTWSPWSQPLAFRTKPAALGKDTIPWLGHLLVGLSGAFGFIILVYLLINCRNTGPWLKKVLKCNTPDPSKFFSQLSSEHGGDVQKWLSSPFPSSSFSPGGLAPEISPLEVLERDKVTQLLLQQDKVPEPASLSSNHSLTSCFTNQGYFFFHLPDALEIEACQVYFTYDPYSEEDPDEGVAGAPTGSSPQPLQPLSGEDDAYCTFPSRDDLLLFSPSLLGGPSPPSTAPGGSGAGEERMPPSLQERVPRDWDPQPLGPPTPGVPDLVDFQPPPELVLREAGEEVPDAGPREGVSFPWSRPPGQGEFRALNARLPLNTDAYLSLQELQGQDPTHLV
T1 sequence (looked up) 2: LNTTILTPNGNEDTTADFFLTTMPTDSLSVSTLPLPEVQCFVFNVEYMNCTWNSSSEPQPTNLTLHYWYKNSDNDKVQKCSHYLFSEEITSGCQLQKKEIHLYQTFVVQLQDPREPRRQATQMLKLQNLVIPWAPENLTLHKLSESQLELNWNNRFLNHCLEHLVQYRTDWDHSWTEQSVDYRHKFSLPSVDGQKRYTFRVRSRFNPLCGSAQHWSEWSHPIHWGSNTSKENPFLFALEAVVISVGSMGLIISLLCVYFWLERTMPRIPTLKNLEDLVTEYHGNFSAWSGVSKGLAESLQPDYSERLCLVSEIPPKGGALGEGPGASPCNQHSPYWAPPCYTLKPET

B1: SOT201 (other)
chain 1: QVQLVQSGVEVKKPGASVKVSCKASGYTFTNYYMYWVRQAPGQGLEWMGGINPSNGGTNFNEKFKNRVTLTTDSSTTTAYMELKSLQFDDTAVYYCARRDYRFDMGFDYWGQGTTVTVSSASTKGPSVFPLAPCSRSTSESTAALGCLVKDYFPEPVTVSWNSGALTSGVHTFPAVLQSSGLYSLSSVVTVPSSSLGTKTYTCNVDHKPSNTKVDKRV[… human IgG4 Fc with S228P L235E T366W (EU numbers) …]ITCPPPMSVEHADIWVKSYSLYSRERYICNSGFKRKAGTSSLTECVLNKATNVAHWTTPSLKCIRDPALVHQRPAPPSGGSGGGGSGGGSGGGGSGGNWVNVISDLKKIEDLIQSMHIDATLYTESDVHPSCKVTAMKCFLLELQVISLESGDASIHDTVEALIILANNSLSSNAQVTESGCKECEELEEKNIKEFLQSFVHIVQMFINTS
chain 2: QVQLVQSGVEVKKPGASVKVSCKASGYTFTNYYMYWVRQAPGQGLEWMGGINPSNGGTNFNEKFKNRVTLTTDSSTTTAYMELKSLQFDDTAVYYCARRDYRFDMGFDYWGQGTTVTVSSASTKGPSVFPLAPCSRSTSESTAALGCLVKDYFPEPVTVSWNSGALTSGVHTFPAVLQSSGLYSLSSVVTVPSSSLGTKTYTCNVDHKPSNTKVDKRVESKYGPPCPPCPAPEFEGGPSVFLFPPKPKDTLMISRTPEVTCVVVDVSQEDPEVQFNWYVDGVEVHNAKTKPREEQFNSTYRVVSVLTVLHQDWLNGKEYKCKVSNKGLPSSIEKTISKAKGQPREPQVYTLPPSQEEMTKNQVSLSCAVKGFYPSDIAVEWESNGQPENNYKTTPPVLDSDGSFFLVSRLTVDKSRWQEGNVFSCSVMHEALHNHYTQKSLSLSLG
chain 3: EIVLTQSPATLSLSPGERATLSCRASKGVSTSGYSYLHWYQQKPGQAPRLLIYLASYLESGVPARFSGSGSGTDFTLTISSLEPEDFAVYYCQHSRDLPLTFGGGTKVEIKRTVAAPSVFIFPPSDEQLKSGTASVVCLLNNFYPREAKVQWKVDNALQSGNSQESVTEQDSKDSTYSLSSTLTLSKADYEKHKVYACEVTHQGLSSPVTKSFNRGEC
B2: hCl1a IE-RLI DANA (other)
heavy 1: QVQLVQSGAEVKKPGASVKVSCKASGYTFTDYAMHWVRQAPGQRLEWMGWINTYTGKPTYAQKFQGRVTITRDTSASTAYMELSSLRSEDTAVYYCARAVFYGYTMDAWGQGTLVTVSSASTKGPSVFPLAPSSKSTSGGTAALGCLVKDYFPEPVTVSWNSGALTSGVHTFPAVLQSSGLYSLSSVVTVPSSSLGTQTYICNVNHKPSNTKVDKKVEPKSCDKTHTCPPCPAPELLGGPSVFLFPPKPKDTLMISRTPEVTCVVIDVSHEDPEVKFNWYVDGVEVHNAKTKPREEQYNSTYRVVSVLTVLHQDWLNGKEYKCKVSNKALPAPEEKTISKAKGQPREPQVYTLPPSRDELTKNQVSLWCLVKGFYPSDIAVEWESNGQPENNYKTTPPVLDSDGSFFLYSKLTVDKSRWQQGNVFSCSVMHEALHNHYTQKSLSLSPGITCPPPMSVEHADIWVKSYSLYSRERYICNSGFKRKAGTSSLTECVLNKATNVAHWTTPSLKCIRDPALVHQRPAPPSGGSGGGGSGGGSGGGGSGGNWVNVISDLKKIEDLIQSMHIDATLYTESDVHPSCKVTAMKCFLLELQVISLESGDASIHATVEALIILANNSLSSNAQVTESGCKECEELEEKNIKEFLQSFVHIVQMFINTS
heavy 2: QVQLVQSGAEVKKPGASVKVSCKASGYTFTDYAMHWVRQAPGQRLEWMGWINTYTGKPTYAQKFQGRVTITRDTSASTAYMELSSLRSEDTAVYYCARAVFYGYTMDAWGQGTLVTVSSASTKGPSVFPLAPSSKSTSGGTAALGCLVKDYFPEPVTVSWNSGALTSGVHTFPAVLQSSGLYSLSSVVTVPSSSLGTQTYICNVNHKPSNTKVDKKV[… human IgG1 Fc with V264I I332E T366S L368A Y407V (EU numbers) …]
light: DIQMTQSPSSLSASVGDRVTITCRASEDIYSNLAWYQQKPGKAPKLLIFSVKRLQDGVPSRFSGSGSGTDFTLTISSLQPEDFATYYCLQGSNFPLTFGQGTKVEIKRTVAAPSVFIFPPSDEQLKSGTASVVCLLNNFYPREAKVQWKVDNALQSGNSQESVTEQDSKDSTYSLSSTLTLSKADYEKHKVYACEVTHQGLSSPVTKSFNRGEC
notes: See note of m4
B3: hCl1a TL-RLI DANA (other)
heavy 1: B2 heavy 1 with I266V, E334I, K394T, P398L
heavy 2: QVQLVQSGAEVKKPGASVKVSCKASGYTFTDYAMHWVRQAPGQRLEWMGWINTYTGKPTYAQKFQGRVTITRDTSASTAYMELSSLRSEDTAVYYCARAVFYGYTMDAWGQGTLVTVSSASTKGPSVFPLAPSSKSTSGGTAALGCLVKDYFPEPVTVSWNSGALTSGVHTFPAVLQSSGLYSLSSVVTVPSSSLGTQTYICNVNHKPSNTKVDKKV[… human IgG1 Fc with T366S L368A K392T P396L Y407V (EU numbers) …]
light: B2 light
notes: See note of m4

Experiments:
[1] = target: T1, IL-2/IL-15Rβγ on kit225 cells; experiment: cell-based or functional assay
[2] = target: T1, IL-2/IL-15Rβγ on kit225 cells; experiment: cell-based or functional assay; remark: listed apart in the source
[3] = target: T1, IL-2/IL-15Rβγ on kit225 cells; experiment: cell-based or functional assay; remark: listed apart in the source
[4] = target: PD-1 on PD-1 Effector Cells (UniProt Q15116 25-288, limits assumed); experiment: cell-based or functional assay
PD-1 [5] = target: T2, PD-1 (UniProt Q15116 fragment, limits assumed); experiment: 4 °C binding, 4 h; method not described, target by context
PD-1 [6] = target: T2, PD-1; experiment: 37 °C binding, 1 h; method not described, target by context
T2 sequence (Q15116 25-167 limits assumed): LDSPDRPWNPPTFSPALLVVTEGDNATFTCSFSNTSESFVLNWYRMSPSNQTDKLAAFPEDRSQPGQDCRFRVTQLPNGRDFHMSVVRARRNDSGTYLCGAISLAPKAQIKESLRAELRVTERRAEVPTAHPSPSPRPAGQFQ

PD-1 [7] = target: T2, PD-1; experiment: 37 °C binding, 4 h; method not described, target by context
FcγRIIIa F158 = target: T3, FcγRIIIa F158 (human, UniProt P08637 fragment); experiment: SPR; ratio of affinity (1/Kd) for FcγRIIIa F158 to affinity for FcγRIIb
Sequence of FcγRIIIa F158 (P08637 17-208 limits assumed): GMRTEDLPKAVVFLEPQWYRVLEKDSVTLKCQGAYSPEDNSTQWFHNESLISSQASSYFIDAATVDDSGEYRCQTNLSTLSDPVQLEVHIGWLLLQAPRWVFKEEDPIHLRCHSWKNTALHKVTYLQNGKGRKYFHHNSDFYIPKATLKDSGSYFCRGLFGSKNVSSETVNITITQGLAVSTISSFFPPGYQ
T3 construct: Captured on the chip through an anti-His tag antibody; construct not described; also called hFcγRIIIaF158; CD16a F158
Experimental: (§1) SPR experiments were performed on a Biacore 8K (Cytiva, Chicago, IL, USA), using CM5 sensor chips (Cytiva) with an immobilization using THE His tag antibodies (Genscript). FcγRIIIa V158, FcγRIIIa F158 or FcγRIIb protein were used for capture with a contact time of 30 sec at a flow rate of […] in a 1×HBS-EP+ running buffer. Association/dissociation rates were measured for each tested immunocytokine at a flow rate of 30 μl/min with concentration serial dilution in a suitable range with an association time/dissociation time of 300 s/300 s except for constructs with DLE and DE with and without afucosylation, where association/dissociation time of 120 s/1200 s was applied.

FcγRIIIa V158 = target: T4, FcγRIIIa V158 (human, UniProt P08637 fragment); experiment: SPR; ratio of affinity (1/Kd) for FcγRIIIa V158 to affinity for FcγRIIb
Sequence of FcγRIIIa V158 (P08637 17-208 F176V): as the sequence (P08637 17-208 limits assumed) above, with F160V counted along it
T4 construct: Captured on the chip through an anti-His tag antibody, so it carries a His tag; construct not described; also called hFcγRIIIaV158; FcγIIIa V158
Experimental: as §1

| EC50 on kit225 cells [1] [nM] | EC50 kit225 cells [2] [nM] | EC50 kit225 cells [3] [nM] | EC50, PD-1/PD-L1 Blockade Bioassay [4] [nM] | Kd (PD-1 [5]) [nM] | Kd (PD-1 [6]) [nM] | Kd (PD-1 [7]) [nM] | A/I (F158) (FcγRIIIa F158) | A/I (V158) (FcγRIIIa V158) | Binder |
| --- | --- | --- | --- | --- | --- | --- | --- | --- | --- |
| 15.2 | 10 | 17.9 | 2.77 | 0.26 | 0.23 | 0.21 |  |  | B1 |
|  |  |  |  |  |  |  | 54.7 | 151 | B2 |
|  |  |  |  |  |  |  | 20.9 | 60.9 | B3 |
